# Measurements: PubChem BioAssay AID485360 (National Center for Advancing Translational Sciences (NCATS), 2010)
# Out of some 230,000 compounds screened, about 1,500 (0.65%) were called active. Inconclusive results, whose numbers are uncertain, are shown with a selection of clear calls. Calls follow the shape of the dose curve; as a rule, active = well fitted inhibition curve with a large enough effect; inconclusive = small, poorly fitted or top-dose-only effect; inactive = no such curve, though single readings can be large or run the other way. Where the call is inconclusive, the potency comes from a doubtful curve fit.
# Target: Lethal(3)malignant brain tumor-like protein 1 (Homo sapiens) (UniProt Q9Y468)
# Chain of UniProt Q9Y468 (Q9Y468 whole entry, looked up): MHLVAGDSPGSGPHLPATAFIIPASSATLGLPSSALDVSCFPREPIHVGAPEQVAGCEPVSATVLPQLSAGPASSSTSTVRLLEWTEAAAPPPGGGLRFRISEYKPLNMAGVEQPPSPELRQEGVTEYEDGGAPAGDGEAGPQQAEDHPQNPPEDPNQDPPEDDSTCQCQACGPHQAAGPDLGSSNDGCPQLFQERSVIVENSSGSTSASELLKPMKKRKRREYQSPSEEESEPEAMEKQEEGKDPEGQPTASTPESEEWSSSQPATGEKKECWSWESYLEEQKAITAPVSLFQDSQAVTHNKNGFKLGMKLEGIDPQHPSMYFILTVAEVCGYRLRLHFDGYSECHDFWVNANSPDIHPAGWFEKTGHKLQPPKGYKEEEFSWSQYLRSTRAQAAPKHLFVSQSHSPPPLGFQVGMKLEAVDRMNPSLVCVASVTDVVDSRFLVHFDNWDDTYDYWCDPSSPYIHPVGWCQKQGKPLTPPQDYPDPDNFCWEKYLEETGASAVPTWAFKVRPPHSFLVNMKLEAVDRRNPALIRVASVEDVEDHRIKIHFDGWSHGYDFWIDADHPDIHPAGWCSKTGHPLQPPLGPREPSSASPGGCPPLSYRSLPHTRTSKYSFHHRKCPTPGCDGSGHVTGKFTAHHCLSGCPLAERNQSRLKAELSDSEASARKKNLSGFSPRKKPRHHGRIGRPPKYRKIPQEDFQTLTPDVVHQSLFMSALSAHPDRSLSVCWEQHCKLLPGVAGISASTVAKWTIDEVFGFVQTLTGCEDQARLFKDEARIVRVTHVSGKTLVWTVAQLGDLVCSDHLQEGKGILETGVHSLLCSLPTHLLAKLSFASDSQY
# Experiment: qHTS Assay for the Inhibitors of L3MBTL1; also: nearly all actives have a fitted effect of over 60% in size
# Settings: AlphaScreen L3MBTL1–H3K9me1 peptide binding; activity, negative = inhibition: at 57.1 µM (top of the series)
# How it was run: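 AlphaScreen proximity signal between nickel-chelate acceptor and streptavidin donor beads (final 10 ug/mL) reports binding of 50 nM L3MBTL1 to 75 nM biotin-H3 K9me1 peptide; complex incubated with compounds 30 min at room temperature; cefsulodin titration as control.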
# % is scaled to controls: 0 for no effect and ±100 for the full control effect; potency is read from the fitted curve at half-maximal effect; tags tell the direction and shape of the fitted curve.
Structure (SMILES),Potency,"activity, negative = inhibition"
N#Cc1cnn2ccc(-c3cc(N4CCOCC4)ccc3[N+](=O)[O-])nc12,"inconclusive: 0.708 µM [inhibitor, full curve, poor fit]",–
O=C(CSc1nnc(-c2ccco2)o1)NCCc1ccccc1,–,inactive: -7.09%
CCOC(=O)C1CCN(Cc2ccc(OCc3ccccc3)cc2)CC1,–,inactive: -1.66%
O=[N+]([O-])c1ccc(S(=O)(=O)Nc2ccc(-c3csc(-c4ccccc4)n3)cc2)cc1,"inconclusive: 25.1 µM [inhibitor, single point]",–
CCCCN1CN(S(=O)(=O)c2cccs2)c2nc3ccccc3nc21,–,inactive: 0.281%
CCOC(=O)N1CCC(NC(=O)c2cccnc2SC)CC1,"inconclusive: 3.98 µM [inhibitor, single point]",–
COc1cccc(Nc2nc(-c3sc(C)nc3C)cs2)c1,–,inactive: -4.2%
Cc1ccc(SCC(=O)c2ccc(CC(=O)O)s2)cc1,"inconclusive: 0.708 µM [inhibitor, full curve, poor fit]",–
O=c1nc(N/N=C/c2ccccn2)cn[nH]1,active: 5.01 µM,–
CCCC(=O)NC(c1ccccc1OC)c1ccc2cccnc2c1O (stereo not drawn),"inconclusive: 25.1 µM [inhibitor, single point]",–
C=CCn1cnnc1SCC(=O)Nc1cccnc1Cl,–,inactive: -13.6%
Nc1nc(-c2cccs2)cs1,–,inactive: -0.701%
COc1ccc(-n2nc([N+](=O)[O-])c(=NCCC3=CCCCC3)n2O)cc1,"inconclusive: 12.6 µM [inhibitor, partial curve]",–
CCOc1cc(C=C(C#N)C#N)ccc1Oc1ccc([N+](=O)[O-])cn1,"inconclusive: 4.47 µM [inhibitor, single point]",–
COc1ccc(N2CC(C(=O)NCCN3C(=O)S/C(=C\c4cccnc4)C3=O)CC2=O)c(OC)c1 (stereo not drawn),"inconclusive: 14.1 µM [inhibitor, partial curve]",–
COc1ccc2c(c1)-c1c(ssc1=S)C(C)(C)N2S(=O)(=O)c1ccc(C)cc1,"inconclusive: 28.2 µM [inhibitor, single point]",–
COc1ccccc1/C=C/C=N/n1c(-c2ccccn2)n[nH]c1=S,"inconclusive: 35.5 µM [inhibitor, single point]",–
Cn1c(CC(=O)Nc2ccccc2)cc2ccccc21,–,inactive: -6.23%
Cc1cc(S(=O)(=O)N(Cc2ccccc2)Cc2ccc(N(C)C)cc2)ccc1-n1cnnn1,–,inactive: 10.3% [at 11.4 µM]
COc1ccccc1N1C(=O)CC(Sc2nc(C)cc(C)n2)C1=O (stereo not drawn),–,inactive: 5.85% [at 11.4 µM]
Cn1c(=O)[nH]c(=O)c2[nH]c(N(Cc3ccccc3)Cc3ccccc3)nc21,–,inactive: -1.24%
c1cc2c3c(cccc3c1)NC1(CCC3(CC1)Nc1cccc4cccc(c14)N3)N2,"inconclusive: 12.6 µM [inhibitor, partial curve]",–
CC1=CC(C)(C)Nc2ccc(OC(=O)CN3C(=O)c4cccc5cccc(c45)C3=O)cc21,"inconclusive: 39.8 µM [inhibitor, single point]",–
Cc1ccc2nc3c(c(C(=O)O)c2c1)CCC3,"inconclusive: 35.5 µM [inhibitor, single point]",–
O=C(NC1CCCCC1)C(c1cccnc1)N(C(=O)CCl)c1cccc(Cl)c1 (stereo not drawn),"inconclusive: 39.8 µM [inhibitor, single point]",–

Structure (SMILES),Potency,"activity, negative = inhibition"
CN(C(=O)COC(=O)C1COc2ccccc2O1)c1c(N)n(Cc2ccccc2)c(=O)[nH]c1=O (stereo not drawn),–,inactive: 4.33%
O=C(Oc1cccc2cccnc12)c1cccc(N2C(=O)C3C4CCC(C4)C3C2=O)c1 (stereo not drawn),"inconclusive: 31.6 µM [inhibitor, single point]",–
COc1ccc(NCC(=O)Nc2ccc(Br)cc2F)c(OC)c1,"inconclusive: 22.4 µM [inhibitor, single point]",–
C#CCSc1nsc(SCC#C)c1C#N,–,inactive: -11.4%
CCOc1ccc(C(=O)N2CCCC2)cc1OC,"inconclusive: 39.8 µM [inhibitor, single point]",–
O=C(CC1CCCC1)Nc1ccc(Cl)c(S(=O)(=O)N2CCOCC2)c1,"inconclusive: 0.708 µM [inhibitor, single point]",–
O=C(O)c1cccc(-c2ccc(/C=c3/sc4nc5ccccc5n4c3=O)o2)c1,active: 3.55 µM,–
CC(C)CN(CC(C)C)C(=O)CC(=O)NC(=O)c1ccc(Cl)cc1,–,inactive: 3.65%
Oc1[nH]c(=S)sc1C=C1N=c2ccccc2=N1,"inconclusive: 0.708 µM [inhibitor, single point]",–
Cc1ncc(CO)c(/C=N/NC(=O)c2ccc(Br)cc2)c1O,"inconclusive: 14.1 µM [inhibitor, partial curve]",–
COc1cc2c(c3oc(-c4ccccc4)cc(=O)c13)C=CC(C)(C)O2,"inconclusive: 0.794 µM [inhibitor, single point]",–
CCc1nc(CN2CCCC(C(=O)c3ccc4c5c(cccc35)CC4)C2)c(C)[nH]1 (stereo not drawn),"inconclusive: 25.1 µM [inhibitor, single point]",–
COC(=O)C1=C(C)N(CCc2c[nH]c3ccc(OC)cc23)C(=O)C1,"inconclusive: 0.158 µM [inhibitor, full curve, poor fit]",–
COc1cc(/C=C(\C#N)c2nc3ccc(C)cc3[nH]2)cc([N+](=O)[O-])c1O,"inconclusive: 10 µM [inhibitor, partial curve, poor fit]",–
CCOc1ccc(C(=O)CC(C(=O)O)N2CCN(Cc3ccccc3)CC2)cc1 (stereo not drawn),–,inactive: 0.454%
Cn1c(SCC(=O)NCCN2C(=O)CSC2=O)nc2ccccc2c1=O,"inconclusive: 4.47 µM [inhibitor, single point]",–
O=C(O)c1cccc(N2C(=O)C3C4C=CC(C4=C(c4ccccc4)c4ccccc4)C3C2=O)c1 (stereo not drawn),"inconclusive: 22.4 µM [inhibitor, partial curve]",–
COc1ccccc1NC(=O)Cn1nnc(-c2ccccc2NS(=O)(=O)c2ccccc2)n1,"inconclusive: 28.2 µM [inhibitor, single point]",–
O=c1cc(CN2CCN(c3ccccn3)CC2)nc2sccn12,–,inactive: -3.65%
O=C1/C(=C/c2cccc(Cl)c2)CSc2sccc21,–,inactive: 25.8%
C=CCNC(C(=O)Nc1cccc(OC)c1)c1ccccc1 (stereo not drawn),"inconclusive: 0.282 µM [inhibitor, full curve, poor fit]",–
CCc1ccc(NC(=O)CSc2nccn(-c3ccc4c(c3)OCCO4)c2=O)cc1,"inconclusive: 3.98 µM [inhibitor, full curve, poor fit]",–
Cc1ccn(-c2cccc(-n3ccc(C)n3)n2)n1,"inconclusive: 6.31 µM [inhibitor, single point]",–
O=C(N/N=C/c1ccc(O)cc1O)C(=O)N/N=C/c1ccc(O)cc1O,active: 0.708 µM,–
N#Cc1ccc(CN2CCN(C(=O)c3cn(Cc4ccccc4)nc3-c3cccnc3)CC2)cc1,–,inactive: -5.26%

Structure (SMILES),Potency,"activity, negative = inhibition"
CN(C)CCCN(C(=O)c1ccc2c(c1)CCCC2)c1nc2c(F)cccc2s1,"inconclusive: 39.8 µM [inhibitor, single point]",–
C(=Nc1ccc(Nc2ccccc2)cc1)c1ccc2ccccc2c1,"inconclusive: 15.8 µM [inhibitor, partial curve]",–
Cc1ccc(C(=O)OCC(=O)NNC(=O)c2ccc([N+](=O)[O-])cc2)o1,"inconclusive: 25.1 µM [inhibitor, single point]",–
N#C/C=C(/N)c1ccc(Br)cc1,–,inactive: -6.29%
Cc1ccc(NC(=O)Cn2cnc3cc([N+](=O)[O-])ccc3c2=O)c(Cl)c1,"inconclusive: 3.98 µM [inhibitor, single point]",–
CCCCCOc1ccc(NC(=O)CCCC(=O)O)cc1,"inconclusive: 7.08 µM [inhibitor, single point]",–
CCc1ccccc1NC(=S)NCc1cccn1C,"inconclusive: 5.62 µM [inhibitor, single point]",–
COc1ccc(Cl)cc1NC(=O)CN(C)C(=O)c1ccc(N2CCCCCC2)c([N+](=O)[O-])c1,–,inactive: -14.1%
CN(C)c1ccc(/C=C/C(=O)c2ccc(C(C)(C)C)cc2)cc1[N+](=O)[O-],"inconclusive: 15.8 µM [inhibitor, partial curve]",–
c1ccc(CNCc2ccc3c(c2)OCO3)nc1,"inconclusive: 35.5 µM [inhibitor, single point]",–
O=C(NCC1CC1)Nc1cccs1,–,inactive: 0.28%
CCOC(=O)N1CCC(=NNc2ccnc3cc(Cl)ccc23)CC1,"inconclusive: 44.7 µM [inhibitor, partial curve, poor fit]",–
CCOc1cc(N2CCOCC2)c(OCC)cc1NC(=O)Cc1ccccc1,–,inactive: -11.2%
CN(C)c1ccc(-n2cccc2)cc1,"inconclusive: 39.8 µM [inhibitor, partial curve, poor fit]",–
O=C(/C(=C/O)N=Nc1ccccc1)c1ccco1,–,inactive: -13.1%
O=C(c1ccc2c(c1)OCO2)C1CCCN(Cc2cccn2-c2cccnc2)C1 (stereo not drawn),"inconclusive: 31.6 µM [inhibitor, single point]",–
O=C(Cc1ccccc1[N+](=O)[O-])N1CCN(c2ccccc2F)CC1,"inconclusive: 0.708 µM [inhibitor, single point]",–
O=C1Nc2c(Br)cc(Br)c3cccc1c23,–,inactive: -17.3%
Cc1nn(-c2ccccc2)cc1/C=N/NC(N)=S,–,inactive: -2.92%
CC1=NN(c2ccccc2)C(=O)/C1=C/C=C/c1ccccc1,"inconclusive: 14.1 µM [inhibitor, partial curve]",–
O=C(O)c1ccc(-c2nc(-c3ccccc3Cl)cs2)cc1,–,inactive: 8.96%
COc1cc(OC)cc(-c2nc(-c3cccs3)no2)c1,"inconclusive: 8.91 µM [inhibitor, single point]",–
Cc1cc(C)cc(C(=O)n2cnnc2N)c1,–,inactive: 2.93% [at 11.4 µM]
